Test results as given in PubChem BioAssay AID1963576 (National Center for Advancing Translational Sciences (NCATS), 2024).
Hit rate of the full screen: of about 46,000 compounds, about 60 (0.1%) were called active. Roughly 3% stayed inconclusive and do not appear here. The call rests on the fitted dose curve; in most records, active means well fitted inhibition curve with a large enough effect; inconclusive means small, poorly fitted or top-dose-only effect; inactive means no such curve, though single readings can be large or run the other way. Some of the results follow.

Experiment: Primary qHTS assay for Inhibitors of ovarian cancer metastasis using an organotypic tumor microenvironment (TME) model. Further: nearly all actives have a fitted effect of over 65% in size.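 On activity change, negative = inhibition: plate controls were DMSO wells for no effect and tomatine positive control wells for full effect.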
Details: SKOV3ip1-GFP adhesion/invasion on 3D omental model, fluorescence; series mostly up to 45.8 µM; activity change, negative = inhibition: at the top concentration
Procedure, shortened: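 Primary human omental fibroblast/mesothelial 3D culture pre-formed 48 h. SKOV3ip1-GFP cells added with compounds (0.36-46 umol/L), incubated 2 h RT/16 h 37 C, fixed; GFP cells quantified at 488/509 nm.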

Compound	activity change, negative = inhibition	outcome
COC(=O)c1cc(S(=O)(=O)N2CCN(c3cccc(C)c3)C(C)C2)cn1C (stereo not drawn)	inactive: 4.1%	–
NC(=O)c1ccccc1NC(=O)c1ccc(-c2ccc(Br)cc2)o1	inactive: 10%	–
O=C(Cn1ncc2c3ccccc3n(Cc3ccc(Cl)cc3)c2c1=O)NCc1ccccn1	inactive: -0.164%	–
O=C(CSc1nnc(-c2ccccc2)o1)c1cccc([N+](=O)[O-])c1	–	inactive
CC(=O)c1cccc(NC(=O)Cn2nc(C)n3cccc3c2=O)c1	inactive: 3.08%	–
CCOC(=O)c1c(C)[nH]c(CCC(=O)NCc2ccc(CC)cc2)c1C	–	inactive
CCc1ccc(-n2cnc3cc(C(=O)NCc4ccc(C)cc4)ccc32)cc1	inactive: 3.1%	–
CCOc1ccc(C(=O)Nc2ccc3nc(SCCOc4ccccc4)sc3c2)cc1	inactive: 3.69%	–
CCN(CC)CCCNC(=O)c1ccc2c(=O)n(CCc3ccccc3)c(=O)[nH]c2c1	–	inactive
Cc1ccc(CSc2nnc(CCNC(=O)OC(C)(C)C)o2)cc1	inactive: -0.728%	–
COc1ccc(OC)c(NC(=O)CSc2nnc3ccc4ccccc4n23)c1	inactive: -2.45%	–
O=C(NCc1ccccc1Cl)c1ccc(CSCc2ccccc2Cl)o1	–	inactive
CCC(Sc1nc2cc(OC)c(OC)cc2c2nc(-c3ccccc3)nn12)C(=O)Nc1cccc(C)c1 (stereo not drawn)	–	inactive
Cc1ccc(-n2ncc(C(=O)NCc3cccs3)c2C2CCN(C(=O)OC(C)(C)C)CC2)c(C)c1	inactive: 6.31%	–
COc1ccc(NC(=O)C2=C(C)Nc3nc(SCc4ccccc4C)nn3C2c2cc(OC)c(O)c(OC)c2)cc1 (stereo not drawn)	inactive: -8.18%	–
CN(Cc1ccccc1)C(=O)Nc1ccc2c(c1)N(C)C(=O)c1ccccc1S2	inactive: 5.77%	–
CCC(C(=O)NCc1ccccc1)n1nc(C)c2sc3ccccc3c2c1=O (stereo not drawn)	inactive: 22.7%	–
COc1ccc(NC(=O)CCn2c(=O)c3cccn3c3cccnc32)c(OC)c1	inactive: -15.9%	–
Cc1ccc(-c2nnc(Nc3cccc(O)c3)c3ccccc23)cc1S(=O)(=O)N1CCOCC1	inactive: -3.47%	–
COc1ccc(-c2noc(CC(=O)Nc3ccc(F)cc3F)n2)cc1	inactive: 11.7%	–
CCc1ccc(NC(=O)CCn2nc(-c3ccccc3OC)c3c(C)cc(C)nc32)cc1	inactive: -24.3%	–
COc1ccccc1OC(C)C(=O)Nc1ccc(-c2nc3ccccc3s2)cc1 (stereo not drawn)	inactive: -8.68%	–
CCC(C)NC(=O)c1ccccc1NC(=O)CN1C(=O)c2cccc3cccc1c23 (stereo not drawn)	–	inactive
CCOCCCNC(=O)C(c1ccc(C)cc1)N(Cc1ccc2c(c1)OCO2)C(=O)c1ccc(NC(C)=O)cc1 (stereo not drawn)	inactive: 2.35%	–

Compound	activity change, negative = inhibition	outcome
Cc1ccc2nc(N3CCC(C(=O)N4CCN(c5cccc(Cl)c5)CC4)CC3)[nH]c2c1	inactive: 3.8%	–
Cc1ccc(C2c3[nH]c4ccccc4c3CCN2C(=O)c2cccc(C)c2)cc1 (stereo not drawn)	inactive: 1.86%	–
CC(C)Nc1ccc(-c2nc(-c3ccco3)no2)cc1[N+](=O)[O-]	–	inactive
c1ccc(Nc2c(-c3c[nH]c4ccccc34)nc3ccccn23)cc1	inactive: 0.792%	–
COc1ccc(-c2cc(C(=O)OC(C)C(=O)c3ccccc3)c3cccc(Cl)c3n2)cc1 (stereo not drawn)	inactive: 3.91%	–
Cc1cccc(NC(=O)c2nnn(CC(=O)Nc3ccc(C(C)C)cc3)c2N)c1C	–	inactive
Cc1cccc(OCC(=O)Nc2ccc(Cl)c(-c3nc4ncccc4o3)c2)c1C	inactive: 7.2%	–
CC(C)NC(=O)CN1C(=O)COc2ccc(S(=O)(=O)N3CCCCCC3)cc21	–	inactive
CCOC(=O)c1c(C)[nH]c(CCC(=O)Nc2ccc(C)c(F)c2)c1C	–	inactive
COc1cc(C(=O)NCC(c2cccs2)S(=O)(=O)c2ccc(F)cc2)cc(OC)c1OC (stereo not drawn)	inactive: -1.47%	–
COc1cc2cc(CNc3ccc(C)cc3)c(=O)n(CC(=O)Nc3ccc(F)cc3F)c2cc1OC	inactive: -23.2%	–
CCOc1ccccc1NC(=O)CN(C)S(=O)(=O)c1ccc2nc(C)sc2c1	inactive: -6.2%	–
Cc1nc(Oc2ccc(F)cc2Cl)c2oc3ccccc3c2n1	inactive: 2.21%	–
CCC(=O)N1CCc2cc(Br)cc(S(=O)(=O)CCC(=O)NCc3ccc(Cl)cc3)c21	inactive: 3.72%	–
COc1ccc(Br)cc1CNC(=O)c1cc2n(n1)CCCN(Cc1ccc(C)cc1)C2=O	inactive: 5.59%	–
O=C(Nc1sc2c(c1C(=O)NCc1ccco1)CCCC2)c1cc(=O)c2ccccc2o1	inactive: 0.732%	–
Cc1ccc(C)c(NC(=O)CN2C(=O)C(C)(C)c3ccccc32)c1	inactive: 4.1%	–
CC(C)Oc1ccc(C(=O)N(Cc2ccco2)c2ccccn2)cc1	inactive: -1.27%	–
Cc1ccc(CNC(=O)CC(C)S(=O)(=O)c2cc3c(cc2C)NC(=O)CO3)cc1 (stereo not drawn)	inactive: 3.23%	–
CSC1=NC2(CCN(C(=O)NC3CCCCC3)CC2)N=C1c1ccc(C)c(C)c1	inactive: -0.89%	–
Cc1ccc(NC(=O)CCc2nnc3n(C)c(=O)c4sccc4n23)cc1C	–	inactive
Fc1ccc(Nc2c3c(nc4ccccc24)CCC3)cc1	inactive: -7.2%	–
Cc1ccc(Sc2c(C)nn(C(C)(C)C)c2OC(=O)C(C)(C)C)cc1	inactive: -3.03%	–
CCc1nnc(SC(CC)C(=O)Nc2cccc(OC)c2)c2cc3oc(C)cc3n12 (stereo not drawn)	inactive: -3.76%	–
